Reference: PubChem BioAssay AID485294 (National Center for Advancing Translational Sciences (NCATS), 2010)
Among all 370,000 compounds or so, about 150 (0.041%) were called active. This list was built around the results that the source calls inconclusive (neither active nor inactive); the mix of calls is not that of the screen. Calls come from the whole dose curve; as a rule, active = well fitted inhibition curve with a large enough effect; inconclusive = small, poorly fitted or top-dose-only effect; inactive = flat fitted curve, though single readings scatter. Potencies of inconclusive entries are left out as doubtful fits.

Biological target: Beta-lactamase (Escherichia coli (strain K12)) (UniProt P00811)
Test: qHTS Inhibitors of AmpC Beta-Lactamase (assay with detergent); note: nearly all actives have a fitted effect of over 25% in size
Conditions: AmpC hydrolysis of nitrocefin, absorbance 480 nm, 0.01% Triton; series mostly up to 114 µM
How it was run: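 20 mM phosphate pH 7.0 + 0.01% (detergent screen) or 0.0001% Triton X-100; 5.3 nM AmpC reagent; cpd preinc 15 min RT; nitrocefin (800 uM stock) to start; A480 q20 s × 4 min; Activity was normalised to no-enzyme and no-compound control wells.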
Potency is the fitted concentration of half-maximal effect; tags give direction and shape of the fitted curve.

Sequence of UniProt P00811 (P00811 whole entry, looked up): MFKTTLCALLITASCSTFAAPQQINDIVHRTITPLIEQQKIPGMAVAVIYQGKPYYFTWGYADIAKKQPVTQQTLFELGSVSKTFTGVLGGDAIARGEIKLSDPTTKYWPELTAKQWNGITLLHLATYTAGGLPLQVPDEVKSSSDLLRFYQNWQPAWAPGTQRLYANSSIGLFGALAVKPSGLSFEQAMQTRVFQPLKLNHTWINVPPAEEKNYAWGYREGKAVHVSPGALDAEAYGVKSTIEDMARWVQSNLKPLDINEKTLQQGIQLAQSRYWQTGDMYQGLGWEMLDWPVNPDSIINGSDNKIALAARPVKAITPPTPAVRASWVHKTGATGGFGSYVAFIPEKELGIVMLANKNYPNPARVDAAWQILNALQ

| SMILES | Potency |
| --- | --- |
| COc1cc(NC(=O)C2CC(c3cccc(OC)c3OC)=NO2)cc(OC)c1OC (centres undefined) | inconclusive [inhibitor, partial curve, poor fit] |
| CCC(=O)NC(c1cccs1)c1cc([N+](=O)[O-])c2cccnc2c1OC (centres undefined) | inconclusive [inhibitor, partial curve] |
| Cc1cc2c(cc1S(=O)(=O)CCC(=O)N(C)Cc1ccccc1)OCC(=O)N2 | inconclusive [inhibitor, partial curve] |
| C#Cc1ccc(CN2CCC(Oc3ccc(C(=O)NCc4ccccn4)cc3)CC2)cc1 | inconclusive [inhibitor, full curve, poor fit] |
| Fc1cccc(Cl)c1CNCCCSc1ncccn1 | inconclusive [inhibitor, full curve, poor fit] |
| CCCCn1c(N)c(N(CCC(C)C)C(=O)CC2CCCCC2)c(=O)[nH]c1=O | inconclusive [inhibitor, full curve] |
| Cc1cccc(NC(=O)CSc2c3c(nc4ccccc24)CCC3)n1 | inconclusive [inhibitor, single point] |
| Cc1ccc(-n2ncc3c(NNC(=O)c4ccco4)ncnc32)cc1C | inactive |
| CCOc1ncccc1C(=O)Nc1cccc(S(=O)(=O)N2CCCCC2)c1 | inactive |
| O=C(CCN1C(=O)c2ccccc2C1=O)Nc1ccccn1 | inconclusive [inhibitor, full curve] |
| CCOC(=O)c1sc(NC(=O)CSc2ncn[nH]2)c(C#N)c1C | inconclusive [inhibitor, full curve, poor fit] |
| CSc1nc2ccsc2c(=O)n1-c1cccnc1 | inconclusive [inhibitor, partial curve] |
| CC(=O)Nc1cccc(OCCCNC(=O)c2cccc3ccccc23)c1 | inactive |
| CCOC(=O)C1=C(C)NC(=S)N(C(C)=O)C1c1ccccc1 (centres undefined) | inconclusive [inhibitor, single point] |
| COc1ccccc1-c1cc(C(F)(F)F)nc(NCc2cccs2)n1 | inconclusive [inhibitor, partial curve, poor fit] |
| CCOc1ccc(C(=O)NC(C(=O)NCC(c2cccs2)N(C)C)C(C)C)cc1 (centres undefined) | inconclusive [inhibitor, single point] |
| O=S(=O)(NCC1CCCO1)c1ccc(S(=O)(=O)N(Cc2ccc(F)cc2)Cc2ccccn2)cc1 (centres undefined) | inconclusive [inhibitor, full curve, poor fit] |
| COc1cccc(NC(=O)CNC(=O)c2cccs2)c1 | inconclusive [inhibitor, partial curve] |
| CC(CCc1ccco1)NC(=O)c1cc2c(-c3ccccc3F)nn(C)c2s1 (centres undefined) | inconclusive [inhibitor, full curve, poor fit] |
| O=c1oc2ccc(NS(=O)(=O)c3cccc4cccnc34)cc2s1 | inactive |
| CCC(=O)NS(=O)(=O)c1cccnc1Nc1ccccc1Cl | inconclusive [inhibitor, full curve, poor fit] |
| Cc1cccc(OCCCC(=O)Nc2ccc(N3CCCCC3)cc2)c1C | inconclusive [inhibitor, single point] |

| SMILES | Potency |
| --- | --- |
| COc1ccc(NC(=O)C2CCCN(S(=O)(=O)c3cccnc3)C2)c(OC)c1 (centres undefined) | inconclusive [inhibitor, full curve, poor fit] |
| O=C1NC(=S)NC(=O)C1C/C=C/c1ccccc1 | inconclusive [inhibitor, full curve, poor fit] |
| Cc1ccc(Nc2nc(-c3ccc(F)cc3)cs2)nc1 | inactive |
| CCOc1ccc(C(=O)NCC(=O)Nc2ccc3c(c2)OCO3)cc1OCC | inactive |
| CCCCN(C(=O)CSc1nnc(-c2ccccc2)o1)c1c(N)n(CCC)c(=O)[nH]c1=O | inactive |
| COc1cc(CN2CCNC(=O)C2CC(=O)N(C)CCN2CCOCC2)cc(OC)c1 (centres undefined) | inconclusive [inhibitor, partial curve, poor fit] |
| COc1cccc(COC(=O)C2CCN(S(=O)(=O)c3cccs3)CC2)c1OC | inconclusive [inhibitor, partial curve, poor fit] |
| CCOc1ccc2nc(N3CCC(C(=O)N4CCN(C5CCCCC5)CC4)CC3)sc2c1 | inconclusive [inhibitor, full curve, poor fit] |
| CCOC(=O)C1C2C=CC3(CN(CCc4ccccc4)C(=O)C13)O2 (centres undefined) | inconclusive [inhibitor, partial curve] |
| CCOc1cc(-c2nc(-c3ccc(C)nc3OC)no2)cc(OCC)c1OCC | inconclusive [inhibitor, partial curve, poor fit] |
| Cc1cc(/C=C2\SC(=S)N(C)C2=O)c(C)n1-c1cccc(O)c1 | inactive |
| NS(=O)(=O)c1ccc(NC(=O)CSc2nnc(COc3ccccc3Cl)n2C2CC2)cc1 | inconclusive [inhibitor, single point] |
| O=Cc1c(NCCN2CCCC2)c2ccccc2[nH]c1=O | inconclusive [inhibitor, partial curve, poor fit] |
| CN1CCN(CCNC(=O)c2ccc3nc(-c4ccc(F)cc4)c(-c4ccc(F)cc4)nc3c2)CC1 | inconclusive [inhibitor, full curve, poor fit] |
| COC(=O)c1cc(S(=O)(=O)N(C)C2CCCCC2)c[nH]1 | inconclusive [inhibitor, full curve] |
| COc1cc(NC(=O)CCCN2C(=O)CCn3nc(-c4cn(C)c5ccccc45)cc32)cc(OC)c1 | inactive |
| Cc1cccc(-n2c(SCC(N)=O)nnc2-c2ccco2)c1 | inconclusive [inhibitor, partial curve, poor fit] |
| Cc1cccc(C2CC(c3ccccc3)Nc3nc(N)nn32)c1 (centres undefined) | inconclusive [inhibitor, full curve] |
| O=C(CCC(=O)N1CCN(S(=O)(=O)c2ccc(Cl)cc2)CC1)NCc1ccccc1 | inconclusive [inhibitor, full curve, poor fit] |
| O=C(c1ccco1)N1CCN(CC2CC3C=CC2C3)CC1 (centres undefined) | inconclusive [inhibitor, partial curve] |
| O=c1c2nnn(Cc3ccccc3)c2ncn1C/C=C/c1ccccc1 | inconclusive [inhibitor, full curve, poor fit] |
| CC(C)n1c(NCc2cc(Cl)ccc2O)nc2ccccc21 | inactive |

| SMILES | Potency |
| --- | --- |
| O=C1CC2(CCN(C(=O)COc3ccc(F)cc3)CC2)Oc2ccccc21 | inconclusive [inhibitor, partial curve] |
| CN(CCO)S(=O)(=O)c1ccc2c(c1)C(=NNC(N)=O)c1cc(S(=O)(=O)N(C)CCO)ccc1-2 | inactive |
| Cc1cc(CNC(=O)c2ccc3c(c2)OCO3)c2ccccc2n1 | inconclusive [inhibitor, full curve, poor fit] |
| CCCC(=O)N(c1ccc2oc(=O)sc2c1)S(=O)(=O)c1ccccc1 | inconclusive [inhibitor, partial curve] |
| CC1(C)NC(=O)N(CCOc2ccc([N+](=O)[O-])cc2)C1=O | inconclusive [inhibitor, full curve, poor fit] |
| Cc1ccccc1NC(=O)NCCCN1CCCC1=O | inconclusive [inhibitor, full curve, poor fit] |
| COc1ccccc1Nc1cc(C)nc2c(C)ccc([N+](=O)[O-])c12 | inconclusive [inhibitor, full curve] |
| CCn1c(SCC(=O)N2CCOCC2)nnc1C(C)NC(=O)c1ccccc1 (centres undefined) | inactive |
| Cc1cc(C)nc(Nc2n[nH]c(-c3ccc(N)cc3)n2)n1 | inconclusive [inhibitor, partial curve, poor fit] |
| CC(=O)Nc1cccc(-c2nnc(-c3ccccc3)o2)c1 | inconclusive [inhibitor, full curve] |
| COC(=O)c1ccc(CNC(=O)CCc2c[nH]c3ccccc23)cc1 | inconclusive [inhibitor, full curve] |
| CCC(=O)Nc1nc2ccc(NC(C)=O)cc2s1 | inconclusive [inhibitor, partial curve, poor fit] |
| O=C(COC(=O)c1cc[n+]([O-])cc1)Nc1ccc(Cl)cc1C(F)(F)F | inconclusive [inhibitor, full curve, poor fit] |
| CN(C)C(=O)Oc1ccc(-c2cn3cc(C(F)(F)F)ccc3n2)cc1 | inconclusive [inhibitor, full curve] |
| COc1ccc(NC2c3ccccc3C(=O)N2c2ccccn2)cc1Cl (centres undefined) | inconclusive [inhibitor, full curve, poor fit] |
| COc1ccc(NC(=O)C(=O)c2cn(CC(=O)N3CCCC3)c3ccccc23)cc1OC | inconclusive [inhibitor, partial curve] |
| CCOC(=O)c1sc(NC(=O)CSc2nnc(Cc3ccccc3)o2)c(C#N)c1C | inconclusive [inhibitor, partial curve, poor fit] |
| Cn1c(Cn2nnc(-c3ccccc3)n2)nnc1SCc1ccccc1Cl | inactive |
| CCS(=O)(=O)N1CCN(Cc2ccc([N+](=O)[O-])cc2)CC1 | inconclusive [inhibitor, partial curve, poor fit] |
| C=CCNC(=O)COC(=O)c1cc(S(=O)(=O)N2CCCCC2)ccc1Cl | inconclusive [inhibitor, full curve, poor fit] |
